In PMC4336329 (PLoS ONE, 2015):
The whole screen tested about 310,000 compounds, of which about 2,200 (0.71%) showed an effect of 50% or more. The effect is printed as a negative number. The list shows a part of the results.

What follows are molecules tested against human ether-à-go-go-related gene (hERG) potassium channel (human, UniProt Q12809) (assay: primary screen, population patch clamp on CHO cells stably expressing hERG).
Chain of human ether-à-go-go-related gene (hERG) potassium channel (Q12809 whole entry, looked up): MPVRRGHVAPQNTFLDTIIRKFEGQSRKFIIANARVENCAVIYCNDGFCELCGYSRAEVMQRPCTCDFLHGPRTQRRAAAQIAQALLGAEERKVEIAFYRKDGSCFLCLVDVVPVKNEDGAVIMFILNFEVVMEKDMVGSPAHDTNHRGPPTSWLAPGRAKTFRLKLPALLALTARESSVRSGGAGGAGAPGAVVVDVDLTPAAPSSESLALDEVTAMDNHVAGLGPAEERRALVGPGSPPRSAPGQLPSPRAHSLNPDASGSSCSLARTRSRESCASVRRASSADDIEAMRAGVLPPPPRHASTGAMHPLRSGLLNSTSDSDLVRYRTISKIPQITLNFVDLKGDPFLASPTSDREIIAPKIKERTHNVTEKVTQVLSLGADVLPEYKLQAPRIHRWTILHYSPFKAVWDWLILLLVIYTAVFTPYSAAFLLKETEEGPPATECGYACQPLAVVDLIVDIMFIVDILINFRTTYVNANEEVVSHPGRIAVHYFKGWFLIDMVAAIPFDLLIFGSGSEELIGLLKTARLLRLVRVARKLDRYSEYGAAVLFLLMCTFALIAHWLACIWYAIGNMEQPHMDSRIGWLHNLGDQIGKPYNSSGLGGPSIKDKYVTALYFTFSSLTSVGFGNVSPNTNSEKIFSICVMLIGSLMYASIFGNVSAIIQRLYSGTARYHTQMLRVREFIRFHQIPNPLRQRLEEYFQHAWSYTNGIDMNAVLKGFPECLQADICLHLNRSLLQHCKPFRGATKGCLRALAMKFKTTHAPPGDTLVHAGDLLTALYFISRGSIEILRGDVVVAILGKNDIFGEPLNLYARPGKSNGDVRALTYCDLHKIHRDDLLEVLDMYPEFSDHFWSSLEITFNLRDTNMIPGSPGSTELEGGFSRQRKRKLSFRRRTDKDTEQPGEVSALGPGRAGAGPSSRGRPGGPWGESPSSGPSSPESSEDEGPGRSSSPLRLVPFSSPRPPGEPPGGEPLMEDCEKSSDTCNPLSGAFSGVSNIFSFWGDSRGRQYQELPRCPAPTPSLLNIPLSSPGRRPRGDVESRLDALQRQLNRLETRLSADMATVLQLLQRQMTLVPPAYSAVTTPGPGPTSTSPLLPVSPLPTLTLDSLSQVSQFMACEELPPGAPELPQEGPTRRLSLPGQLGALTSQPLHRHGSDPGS

Row | Compound | hERG current change (%, negative = inhibition) at 1uM
1 | COc1ccc(C(=O)Oc2c(OC)cc(C(=S)N3CCOCC3)cc2OC)cc1OC | 15.8%
2 | c1ccc2c(c1)NC1(CCCC1)n1c-2nc2ccccc21 | 9.03%
3 | COCCn1c(C)cc(C(=O)CSc2nc(C)c(C)c(C)n2)c1C | 9.29%
4 | CS(=O)(=O)N(Cc1ccc(Cl)cc1)c1ccc(C(=O)N2CCN(c3ccccc3)CC2)cc1 | 3.27%
5 | Clc1ncn(C23CC4CC(CC(C4)C2)C3)n1 | 9.07%
6 | O=C(O)CCC(=O)Nc1nc(-c2ccccc2)cs1 | 12.8%
7 | O=c1cc(-c2ccccc2)nc2nc(-c3ccco3)[nH]n12 | 7.53%
8 | Cc1cc(NCCO)nc(N2CCOCC2)n1 | 15.6%
9 | CCCc1cc(-c2n[nH]c(=S)n2CC(C)C)cs1 | 14.4%
10 | Br.CC1CN(CC(=O)c2ccccc2Cl)CC(C)O1 (stereo not shown) | 9.69%
11 | CN(c1ccccc1)S(=O)(=O)c1cccc(NC(=O)COC(=O)C2CCCCC2)c1 | 6.17%
12 | COc1ccc(/C=N/NC(=O)CN(Cc2ccccc2)S(=O)(=O)c2ccc3c(c2)OCCO3)cc1 | 10.5%
13 | Cc1cccc(C)c1NC(=O)CS(=O)CC(=O)NC1CCCc2ccccc21 (stereo not shown) | 7.5%
14 | Cc1[nH]c2ccccc2c1C(=O)CSc1nnc(C2CC2)o1 | 15.5%
15 | COCCNC(=S)NNC(=O)c1cc(-c2cccnc2)nc2ccccc12 | 18.7%
16 | C=CCOc1ccccc1CNCCCN1CCOCC1.Cl | 37%
17 | Cc1cc(C)c(NC(=O)C2C3/C=C\CCCCC32)c(C)c1 (stereo not shown) | 7.77%
18 | O=C(NC1CCC(O)CC1)C1CCN(S(=O)(=O)c2c(Cl)cccc2Cl)CC1 (stereo not shown) | 0.544%
19 | CCC[N+](CC#Cc1ccccc1)(CCC)CC(=O)OCC | 10.5%
20 | Cc1ccccc1/C=N\NC(=O)c1ccc(Cn2cccn2)o1 | 2.53%
21 | COc1cc(C(=O)N(Cc2ccc(F)cc2)C2CCS(=O)(=O)C2)cc(OC)c1OC (stereo not shown) | 11.2%
22 | CCOC1OC(=O)C(Cl)=C1Nc1ccccc1C (stereo not shown) | 3.08%

Row | Compound | hERG current change (%, negative = inhibition) at 1uM
23 | O=C(Nc1ccccc1)N1CCN(CCc2ccccc2)CC1 | 5.19%
24 | Cc1ccc(OCCCCN2CCCCC2)cc1 | 9.11%
25 | CCn1ncc(CNC(=O)C2(C)CC2(Br)Br)c1C (stereo not shown) | 22%
26 | COc1ccc(NC(=O)N[C@@H](CCSC)C(=O)O)cc1OC | 7.81%
27 | COc1ccc(OCCCn2cccc2/C=C2/C(=N)N3OC(C)=CC3=NC2=O)cc1 | 6.39%
28 | CC(C)(C)c1cc(CCC(=O)N2CCC2)cc(C(C)(C)C)c1O | 8.57%
29 | CCN1C(=O)C(CC(=O)Nc2ccc(F)cc2)N(CCCN2CCN(c3ccc(F)cc3)CC2)C1=S (stereo not shown) | 0.806%
30 | COCCn1nnnc1C(c1ccccc1OC)N1CCc2ccccc2C1 (stereo not shown) | 4.3%
31 | Cc1c(NC(=S)NC(=O)c2ccc(Br)o2)c(=O)n(-c2ccccc2)n1C | 13.2%
32 | COc1nc(C)cc(C)c1S(=O)(=O)c1ccccc1C | 15.1%
33 | CCOC(=O)c1ccc(N2C(=O)[C@@H](c3ccccc3)[C@H]2c2ccccc2)cc1 | 8.55%
34 | COc1ccc(CC(=O)Oc2cc(C)[nH]c(=O)c2[N+](=O)[O-])cc1 | 4.19%
35 | COc1ccccc1NC(=O)N1CCN(c2ncccn2)CC1 | 1.94%
36 | Cc1ccc(N2CCN(C(=O)c3ccccc3F)CC2)c(C)c1 | 2.44%
37 | COc1ccc(C2C(C(=O)c3cccs3)=C(O)C(=O)N2c2nnc(C)s2)cc1OC (stereo not shown) | 7.85%
38 | CCc1c(C)c(C#N)c2nc3ccccc3n2c1NCC1CCCO1 (stereo not shown) | -3.59%
39 | COC(CNC(=O)CCc1c(C)nc2c(-c3ccc(F)cc3)c(C)nn2c1C)OC | 14.4%
40 | O=C(COC(=O)/C=C/c1ccc(C(F)(F)F)cc1)NCC1CCCCC1 | 8.62%
41 | CCOc1cc(NC(=O)c2ccccn2)c(OCC)cc1NC(=O)c1ccccc1 | 16.8%
42 | CCOc1cccc(C2/C(=C(\O)c3ccc4c(c3)OCCO4)C(=O)C(=O)N2Cc2ccncc2)c1 (stereo not shown) | 8.15%
43 | NS(=O)(=O)c1ccc(CCN=C(NS(=O)(=O)c2cccs2)c2ccccc2)cc1 | 7.79%
44 | CCC(C(=O)NC(C)CCc1ccccc1)n1nc(C)n2c(cc3occc32)c1=O (stereo not shown) | 8.19%

Row | Compound | hERG current change (%, negative = inhibition) at 1uM
45 | O=C(CSc1ncn[nH]1)Nc1nc(-c2ccccc2)ns1 | -7.37%
46 | Cc1cc(C)c2c(N)c(C(=O)NN3CC(=O)N(c4ccccc4)CC3=O)sc2n1 | 7.75%
47 | COc1ccc(C(=O)Nc2ccccc2NC(=O)c2ccc(OC)cc2)cc1 | 1.94%
48 | C=C1SC(=Nc2ccccc2Cl)N(C(=O)c2sc3ccccc3c2Cl)C12CCCCC2 | 10.9%
49 | COCCNC(=S)N(CCc1c(C)[nH]c2ccc(F)cc12)Cc1ccco1 | 16.6%
50 | Cc1cccc(N2CCN(C(=O)c3ccc(Cl)c(S(=O)(=O)NCc4ccco4)c3)CC2)c1C | 12.6%
51 | CC(OC(=O)CN(C)S(=O)(=O)c1ccc(Cl)cc1)C(=O)Nc1ncc(Cl)cc1Cl (stereo not shown) | -13.3%
52 | CCC(Sc1nc2ccccc2c(=O)n1CC1CCCO1)C(=O)NCc1cccnc1 (stereo not shown) | 3.14%
53 | O=C(NCCC1CCCCN1S(=O)(=O)c1ccccc1)C(=O)NCc1ccccc1F (stereo not shown) | 10.4%
54 | Cc1ccc(NC(=O)CCCCCN2C(=O)[C@@H]3Cc4ccccc4CN3C2=O)cc1 | 6.46%
55 | Cc1nc([N+](=O)[O-])c(N2CCOCC2)n1Cc1ccccc1 | 12.8%
56 | Cc1ccccc1OCc1nnc(SC(C)C(=O)O)n1Cc1ccccc1 (stereo not shown) | 10.9%
57 | C=CCNC(=O)CC1C(=O)NCCN1Cc1ccc(-c2ccccc2)cc1 (stereo not shown) | 3.44%
58 | CN(Cc1cccs1)C(=O)Cc1csc(-c2ccccc2)n1 | 5.57%
59 | CCCOc1cccc(C(=O)Nc2ccccc2C(=O)N2CCN(C)CC2)c1 | -21.3%
60 | CCn1cc(C(=O)NCCCN2CC(C)CC(C)C2)c2cc(OC)c(OC)cc2c1=O (stereo not shown) | 5.77%
61 | CC(C(=O)Nc1ccncc1)(c1ccccc1)c1ccccc1 | -8.74%
62 | CCc1nc(Nc2cccc(O)c2)c2oc3ccccc3c2n1.Cl | 4.28%
63 | Cc1ccccc1CC1CCN(CCCNC(=O)Nc2ccccc2)CC1 | -34.1%
64 | Brc1ccccc1C1=Nn2c(nnc2-c2ccccc2)SC1 | 15.1%
65 | COCOc1ccc(C=O)c(O)c1 | 13.9%
66 | Nc1c(Cl)cc(C2=NCCn3c2c2ccc([N+](=O)[O-])cc2[n+]3[O-])cc1Cl | -5.67%

Row | Compound | hERG current change (%, negative = inhibition) at 1uM
67 | CCCC[C@@H]1C[C@H]1[C@@H](NC(=O)c1cccs1)c1ccc(Cl)cc1 | 11.8%
68 | Cc1ccc(NC(=O)c2c([N+](=O)[O-])c(C(C)(C)C)nn2C)cc1 | 8.08%
69 | CCCN(C(=O)c1cc(Cl)nc2ccccc12)C1CCS(=O)(=O)C1 (stereo not shown) | 11%
70 | COC(=O)C1=C(c2ccccc2)C[C@@H]2CC[C@H]1N2C(=O)NCCS(C)=O (stereo partly shown) | 19.1%
71 | Cc1c([N+](=O)[O-])cnc(Sc2ccccc2)c1[N+](=O)[O-] | 8.28%
72 | Cc1[nH]n(-c2ccccc2)c(=O)c1/C=N/NC(=O)C(C)C | 5.77%
73 | CCN(CC)CCn1c2ccc(Cl)cc2c2nc(C)sc21.Cl | -49.7%
74 | Br.Cc1nc2ccc(NC3=NCCCCC3)cc2s1 | 11.5%
75 | COc1ccccc1CNC(=O)CCn1c(=O)sc2ccccc21 | 1.53%
76 | COc1ccc(C2/C(=C(/O)c3ccc4c(c3)CC(C)O4)C(=O)C(=O)N2CCCN2CCOCC2)cc1 (stereo not shown) | 11.8%
77 | CC1(C)NC(=O)N(CCOc2cccc(Oc3ccccc3)c2)C1=O | -1.05%
78 | O=c1c2c(nc3nc(NCc4ccc(Cl)cc4)[nH]n13)CCC2 | 9.51%
79 | CN(CCOc1ccccc1)C(=O)c1cc(S(=O)(=O)N2CCCCC2)ccc1Cl | -7.59%
80 | Cc1occc1C(=O)Nc1cc(C(F)(F)F)ccc1Cl | 8.09%
81 | C=CCn1cc(C(=O)OCC)c(=O)c2ccc(F)cc21 | 10.8%
82 | CCn1cc(C(=O)NC2CCCCCC2)c(=O)c2cc(S(=O)(=O)N3CCCCC3)ccc21 | 12.5%
83 | CC(C)CC(NS(=O)(=O)c1cc(C(=O)O)ccc1Cl)C(=O)O (stereo not shown) | 9.73%
84 | COc1ccccc1C(=O)NC(=O)COC(=O)c1ccc([N+](=O)[O-])cc1 | 8.68%
85 | COc1cc(/C=C(\NC(C)=O)C(=O)Nc2cccc(O)c2)ccc1OC(C)=O | 10.6%
86 | CSc1ccc(/C=N/NC(=O)CNc2ccc3ccccc3c2)cc1 | 11.3%
87 | O=C(NNC1=Nc2cc([N+](=O)[O-])ccc2OC1)c1ccccc1Cl | 7.39%
88 | Cc1cc(C)cc(C(=O)NCC(=O)OCC(=O)N(C)C2CCS(=O)(=O)C2)c1 (stereo not shown) | 2.9%
